The source of these data is patent US20150266922A1 (GEORG AUGUST UNIVERSITAT GOTTINGEN STIFTUNG OFFENTLICHEN …, published 2015).

In this experiment the target is T1, ovalbumin (UniProt P01012 2-386).
T1 construct: Control
T1 sequence (looked up): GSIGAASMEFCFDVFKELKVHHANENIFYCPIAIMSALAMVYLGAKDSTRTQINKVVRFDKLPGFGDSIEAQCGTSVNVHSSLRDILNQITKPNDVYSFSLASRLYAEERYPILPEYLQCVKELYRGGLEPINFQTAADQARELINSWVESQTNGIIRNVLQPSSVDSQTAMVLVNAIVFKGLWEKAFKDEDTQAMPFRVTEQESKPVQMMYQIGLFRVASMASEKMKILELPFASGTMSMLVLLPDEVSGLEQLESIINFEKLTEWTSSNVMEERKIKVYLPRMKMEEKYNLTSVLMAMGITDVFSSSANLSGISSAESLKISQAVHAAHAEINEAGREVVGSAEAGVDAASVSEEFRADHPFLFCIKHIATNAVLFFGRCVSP
Description: ELISA, increasing concentrations of SUMO1 on coated wells. (In general: An ELISA detects its analyte on a solid surface through an enzyme-linked reagent.)

B1: SUMO1 (other)
chain: not shown
notes: Immobilized on CnBr Sepharose beads or ELISA wells, or free in solution; also called S1
As for B1, the binding result was “no binding”.
